± gives the standard error. Variants at the background level are over-represented here.
B1: glmS ribozyme (parent)
chain: AUAAAAGCGCCAGAACUACAGAAAUGUAGUUGACGAGGAGGAGGUUUAUCGAAUUUUCGGCGGAUGCCUCCAAA

Assays:
Details in all cases: with glucosamine-6-phosphate
glucosamine-6-phosphate [1] = variants of: B1; experiment: self-cleavage kobs at 40 uM GlcN6P; higher = faster cleavage; RNA array
Summary of the method: (§1)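 Over ~14 h at 37 °C, tiles were imaged as glucosamine-6-phosphate (40 μM to 10 mM) in HEPES/KCl/Mg(OAc)2 buffer flowed across sequenced MiSeq chips. The chips carried barcoded ribozyme variants transcribed in situ by E. coli RNA polymerase and tracked with a hybridised Cy3 probe. After normalisation to baseline and to non-cleaving reference variants, one- or two-exponential decay fits of per-tile medians gave kobs. kcat and KM followed from weighted Michaelis–Menten fits across concentrations.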

glucosamine-6-phosphate [2] = variants of: B1; experiment: self-cleavage kobs at 640 uM GlcN6P; higher = faster cleavage; RNA array
Summary of the method: as §1

glucosamine-6-phosphate [3] = variants of: B1; experiment: self-cleavage kobs at 160 uM GlcN6P; higher = faster cleavage; RNA array
Summary of the method: as §1

glucosamine-6-phosphate [4] = variants of: B1; experiment: self-cleavage kobs at 2500 uM GlcN6P; higher = faster cleavage; RNA array
Summary of the method: as §1

glucosamine-6-phosphate [5] = variants of: B1; experiment: self-cleavage kobs at 10000 uM GlcN6P; higher = faster cleavage; RNA array
Summary of the method: as §1

AUAAAAGCGCCAGAACUACAGAAAUGUAGUUGACGAGGAUGAGGUUUAUCGAAUGUUCGGCGGAUGCCUCCAAA [G40U U55G]
self-cleavage kobs at 40 uM GlcN6P (glucosamine-6-phosphate [1]): 0.000102 ± 1.4e-05 s⁻¹
self-cleavage kobs at 640 uM GlcN6P (glucosamine-6-phosphate [2]): 0.000543 ± 9.9e-05 s⁻¹
self-cleavage kobs at 160 uM GlcN6P (glucosamine-6-phosphate [3]): 0.000149 ± 2.2e-05 s⁻¹
self-cleavage kobs at 2500 uM GlcN6P (glucosamine-6-phosphate [4]): 0.00142 ± 0.00023 s⁻¹
self-cleavage kobs at 10000 uM GlcN6P (glucosamine-6-phosphate [5]): 0.00228 ± 0.00046 s⁻¹

AUAAAAGCGCCAGAACUACAGAAAUGUAGUUGACGAGGAAGAGGUUUAUCGAAUUUUCGGCCGAUGCCUCCAAA [G40A G62C]
self-cleavage kobs at 40 uM GlcN6P (glucosamine-6-phosphate [1]): < 1e-05 s⁻¹
self-cleavage kobs at 640 uM GlcN6P (glucosamine-6-phosphate [2]): < 1e-05 s⁻¹
self-cleavage kobs at 160 uM GlcN6P (glucosamine-6-phosphate [3]): < 1e-05 s⁻¹

AUAAAAGCGCCAGAACUACAGAAAUGUAGUUGACGAGGUGGAGGUUUAUCGAAUUUUGGGCGGAUGCCUCCAAA [A39U C58G]
self-cleavage kobs at 40 uM GlcN6P (glucosamine-6-phosphate [1]): < 1e-05 s⁻¹
self-cleavage kobs at 2500 uM GlcN6P (glucosamine-6-phosphate [4]): 2.25e-05 ± 1e-05 s⁻¹
self-cleavage kobs at 10000 uM GlcN6P (glucosamine-6-phosphate [5]): 5.48e-05 ± 1.2e-05 s⁻¹

AUAAAAGCGCCAGAACUACAGAAAUGUAGUUGACGAGGAGAAGGUUUGUCGAAUUUUCGGCGGAUGCCUCCAAA [G41A A48G]
self-cleavage kobs at 40 uM GlcN6P (glucosamine-6-phosphate [1]): < 1e-05 s⁻¹
self-cleavage kobs at 640 uM GlcN6P (glucosamine-6-phosphate [2]): < 1e-05 s⁻¹
self-cleavage kobs at 160 uM GlcN6P (glucosamine-6-phosphate [3]): < 1e-05 s⁻¹
self-cleavage kobs at 2500 uM GlcN6P (glucosamine-6-phosphate [4]): < 1e-05 s⁻¹

AUAAAAGCGCCAGAACUACAGAAAUGUAGUUGACGAGGACGAGGUUAAUCGAAUUUUCGGUGGAUGCCUCCAAA [G40C U47A C61U]
self-cleavage kobs at 40 uM GlcN6P (glucosamine-6-phosphate [1]): < 1e-05 s⁻¹

AUAAAAGCGCCAGAACUACAGAAAUGUAGUUGACGAGGAAGAGGUUUAUCGAAUUUUCGGCGGAAGCCUCCAAA [G40A U65A]
self-cleavage kobs at 40 uM GlcN6P (glucosamine-6-phosphate [1]): 3.89e-05 ± 8.4e-06 s⁻¹
self-cleavage kobs at 640 uM GlcN6P (glucosamine-6-phosphate [2]): 0.000213 ± 4.3e-05 s⁻¹
self-cleavage kobs at 160 uM GlcN6P (glucosamine-6-phosphate [3]): 7.08e-05 ± 1.3e-05 s⁻¹
self-cleavage kobs at 2500 uM GlcN6P (glucosamine-6-phosphate [4]): 0.000615 ± 0.00011 s⁻¹
self-cleavage kobs at 10000 uM GlcN6P (glucosamine-6-phosphate [5]): 0.00106 ± 0.00012 s⁻¹

AUAAAAGCGCCAGAACUACAGAAAUGUAGUUGACGAGGAUGAGGUUUAUCGAAUUUUCGGCGGAUGUCUACAAA [G40U C67U C70A]
self-cleavage kobs at 40 uM GlcN6P (glucosamine-6-phosphate [1]): < 1e-05 s⁻¹

AUAAAAGCGCCAGAACUACAGAAAUGUAGUUGACGAGGGGGAGGUUUAUCGAAUUUCCGGCGGAUGCCUCCAAA [A39G U57C]
self-cleavage kobs at 40 uM GlcN6P (glucosamine-6-phosphate [1]): < 1e-05 s⁻¹
self-cleavage kobs at 640 uM GlcN6P (glucosamine-6-phosphate [2]): 5.87e-05 ± 1.5e-05 s⁻¹
self-cleavage kobs at 2500 uM GlcN6P (glucosamine-6-phosphate [4]): 0.00013 ± 2.3e-05 s⁻¹
self-cleavage kobs at 10000 uM GlcN6P (glucosamine-6-phosphate [5]): 0.000351 ± 6.4e-05 s⁻¹

AUAAAAGCGCCAGAACUACAGAAAUGUAGUUGACGAGGUGGAGGAUUAUCGAAUUUUCGGCGGAUGCCUCCAAA [A39U U45A]
self-cleavage kobs at 40 uM GlcN6P (glucosamine-6-phosphate [1]): 0.000759 ± 9.8e-05 s⁻¹
self-cleavage kobs at 640 uM GlcN6P (glucosamine-6-phosphate [2]): 0.0067 ± 0.0015 s⁻¹
self-cleavage kobs at 160 uM GlcN6P (glucosamine-6-phosphate [3]): 0.00209 ± 0.00053 s⁻¹
self-cleavage kobs at 2500 uM GlcN6P (glucosamine-6-phosphate [4]): 0.0135 ± 0.0033 s⁻¹
self-cleavage kobs at 10000 uM GlcN6P (glucosamine-6-phosphate [5]): 0.0807 ± 0.02 s⁻¹

AUAAAAGCGCCAGAACUACAGAAAUGUAGUUGACGAGGUGGAGGUUUAUCGAAUUUUCGGCGGAUGCCUCCAAA [A39U]
self-cleavage kobs at 40 uM GlcN6P (glucosamine-6-phosphate [1]): 0.000604 ± 1e-05 s⁻¹

AUAAAAGCGCCAGAACUACAGAAAUGUAGUUGACGAGGACGAGGUUUACCGAAUUUUCGGCGGAUGCCUCCAAA [G40C U49C]
self-cleavage kobs at 40 uM GlcN6P (glucosamine-6-phosphate [1]): < 1e-05 s⁻¹
self-cleavage kobs at 640 uM GlcN6P (glucosamine-6-phosphate [2]): < 1e-05 s⁻¹
self-cleavage kobs at 2500 uM GlcN6P (glucosamine-6-phosphate [4]): < 1e-05 s⁻¹
self-cleavage kobs at 10000 uM GlcN6P (glucosamine-6-phosphate [5]): < 1e-05 s⁻¹

AUAAAAGCGCCAGAACUACAGAAAUGUAGUUGACGAGGAUGAGGUUUAUCUAAUUUUCGGCAGAUGCUUCCAAA [G40U G51U G62A C68U]
self-cleavage kobs at 40 uM GlcN6P (glucosamine-6-phosphate [1]): < 1e-05 s⁻¹
self-cleavage kobs at 10000 uM GlcN6P (glucosamine-6-phosphate [5]): < 1e-05 s⁻¹

AUAAAAGCGCCAGAACUACAGAAAUGUAGUUGACGAGGAUGAGGUUUGUCGAAUUUUCGGCGUAUGCCUCCAAA [G40U A48G G63U]
self-cleavage kobs at 40 uM GlcN6P (glucosamine-6-phosphate [1]): < 1e-05 s⁻¹
self-cleavage kobs at 640 uM GlcN6P (glucosamine-6-phosphate [2]): < 1e-05 s⁻¹
self-cleavage kobs at 160 uM GlcN6P (glucosamine-6-phosphate [3]): < 1e-05 s⁻¹
self-cleavage kobs at 10000 uM GlcN6P (glucosamine-6-phosphate [5]): < 1e-05 s⁻¹

AUAAAAGCGCCAGAACUACAGAAAUGUAGUUGACGAGGACGAGGUUUAUCGAAUUUUCGACGGAUGCCUCCAAA [G40C G60A]
self-cleavage kobs at 40 uM GlcN6P (glucosamine-6-phosphate [1]): < 1e-05 s⁻¹
self-cleavage kobs at 640 uM GlcN6P (glucosamine-6-phosphate [2]): < 1e-05 s⁻¹
self-cleavage kobs at 10000 uM GlcN6P (glucosamine-6-phosphate [5]): < 1e-05 s⁻¹

AUAAAAGCGCCAGAACUACAGAAAUGUAGUUGACGAGGUGGAGGUUUAUCGAAUUUUCGGCCGAUGCCUCCAAA [A39U G62C]
self-cleavage kobs at 40 uM GlcN6P (glucosamine-6-phosphate [1]): < 1e-05 s⁻¹
self-cleavage kobs at 640 uM GlcN6P (glucosamine-6-phosphate [2]): < 1e-05 s⁻¹
self-cleavage kobs at 160 uM GlcN6P (glucosamine-6-phosphate [3]): < 1e-05 s⁻¹
self-cleavage kobs at 2500 uM GlcN6P (glucosamine-6-phosphate [4]): < 1e-05 s⁻¹
self-cleavage kobs at 10000 uM GlcN6P (glucosamine-6-phosphate [5]): < 1e-05 s⁻¹

AUAAAAGCGCCAGAACUACAGAAAUGUAGUUGACGAGGAAGAGGUUUAUCGAAUUUUCGACGGAUGCCUCCAAA [G40A G60A]
self-cleavage kobs at 40 uM GlcN6P (glucosamine-6-phosphate [1]): < 1e-05 s⁻¹
self-cleavage kobs at 160 uM GlcN6P (glucosamine-6-phosphate [3]): < 1e-05 s⁻¹

AUAAAAGCGCCAGAACUACAGAAAUGUAGUUGACGAGGAUGAGGUUUGUCGAAUUUUCGGCGGAUGCCUACAAA [G40U A48G C70A]
self-cleavage kobs at 40 uM GlcN6P (glucosamine-6-phosphate [1]): < 1e-05 s⁻¹
self-cleavage kobs at 10000 uM GlcN6P (glucosamine-6-phosphate [5]): 3.93e-05 ± 9.6e-06 s⁻¹

AUAAAAGCGCCAGAACUACAGAAAUGUAGUUGACGAGGAUGAGGAUUAUCGAAUUUUCGGCGGAUGCCUCCAAA [G40U U45A]
self-cleavage kobs at 40 uM GlcN6P (glucosamine-6-phosphate [1]): 8.3e-05 ± 1.1e-05 s⁻¹
self-cleavage kobs at 640 uM GlcN6P (glucosamine-6-phosphate [2]): 0.00081 ± 0.0001 s⁻¹
self-cleavage kobs at 160 uM GlcN6P (glucosamine-6-phosphate [3]): 0.000265 ± 4.2e-05 s⁻¹
self-cleavage kobs at 2500 uM GlcN6P (glucosamine-6-phosphate [4]): 0.00235 ± 0.00023 s⁻¹
self-cleavage kobs at 10000 uM GlcN6P (glucosamine-6-phosphate [5]): 0.00154 ± 0.00024 s⁻¹

AUAAAAGCGCCAGAACUACAGAAAUGUAGUUGACGAGGAAGAGGUUUAUCGAAUUUUCGGGGGAUGCCUCCAAA [G40A C61G]
self-cleavage kobs at 40 uM GlcN6P (glucosamine-6-phosphate [1]): < 1e-05 s⁻¹
self-cleavage kobs at 640 uM GlcN6P (glucosamine-6-phosphate [2]): < 1e-05 s⁻¹
self-cleavage kobs at 160 uM GlcN6P (glucosamine-6-phosphate [3]): < 1e-05 s⁻¹
self-cleavage kobs at 2500 uM GlcN6P (glucosamine-6-phosphate [4]): < 1e-05 s⁻¹
self-cleavage kobs at 10000 uM GlcN6P (glucosamine-6-phosphate [5]): < 1e-05 s⁻¹

AUAAAAGCGCCAGAACUACAGAAAUGUAGUUGACGAGGUGGAGGUUUAUCGAAUUUUCGGCGGGUGCCUCCAAA [A39U A64G]
self-cleavage kobs at 40 uM GlcN6P (glucosamine-6-phosphate [1]): 0.000447 ± 5.6e-05 s⁻¹
self-cleavage kobs at 640 uM GlcN6P (glucosamine-6-phosphate [2]): 0.00498 ± 0.0006 s⁻¹
self-cleavage kobs at 160 uM GlcN6P (glucosamine-6-phosphate [3]): 0.00134 ± 0.00017 s⁻¹
self-cleavage kobs at 2500 uM GlcN6P (glucosamine-6-phosphate [4]): 0.0101 ± 0.0015 s⁻¹
self-cleavage kobs at 10000 uM GlcN6P (glucosamine-6-phosphate [5]): 0.0327 ± 0.0047 s⁻¹

AUAAAAGCGCCAGAACUACAGAAAUGUAGUUGACGAGGACGAGGUUUAUCGAAUUUUCGGAGGAUGCCUCCAAA [G40C C61A]
self-cleavage kobs at 40 uM GlcN6P (glucosamine-6-phosphate [1]): < 1e-05 s⁻¹
self-cleavage kobs at 2500 uM GlcN6P (glucosamine-6-phosphate [4]): < 1e-05 s⁻¹

AUAAAAGCGCCAGAACUACAGAAAUGUAGUUGACGAGGAUGAGGUCUAUCGAAUUUUCGGCGGAUGCCUCCAAA [G40U U46C]
self-cleavage kobs at 40 uM GlcN6P (glucosamine-6-phosphate [1]): 4.23e-05 ± 1.1e-05 s⁻¹
self-cleavage kobs at 640 uM GlcN6P (glucosamine-6-phosphate [2]): 0.000365 ± 5e-05 s⁻¹
self-cleavage kobs at 160 uM GlcN6P (glucosamine-6-phosphate [3]): 9.14e-05 ± 1.9e-05 s⁻¹
self-cleavage kobs at 2500 uM GlcN6P (glucosamine-6-phosphate [4]): 0.000971 ± 0.00014 s⁻¹
self-cleavage kobs at 10000 uM GlcN6P (glucosamine-6-phosphate [5]): 0.00137 ± 0.00016 s⁻¹

AUAAAAGCGCCAGAACUACAGAAAUGUAGUUGACGAGGACGAGGUUUAUCGUAUUUUCGGCGGAUGCCUCCAAA [G40C A52U]
self-cleavage kobs at 40 uM GlcN6P (glucosamine-6-phosphate [1]): < 1e-05 s⁻¹

From the supplement of paper PMC7125110
